Experimental data as given in PubChem BioAssay AID1460 (National Center for Advancing Translational Sciences (NCATS), 2008).
Values joined by “and” are separate entries in the source; they are usually repeats but may differ in a detail not shown here. Equal entries are not always repeated. Among all 270,000 compounds or so, about 5,800 (2.1%) were called active. Inconclusive means that the source gave no clear call. Such entries were picked first, then a sample of the others. The call rests on the fitted dose curve; in most records, active means well fitted inhibition curve with a large enough effect; inconclusive means small, poorly fitted or top-dose-only effect; inactive means flat fitted curve, though single readings scatter. Where the call is inconclusive, the potency comes from a doubtful curve fit.

molecular target: Microtubule-associated protein tau (Homo sapiens) (UniProt P10636); experiment: qHTS for Inhibitors of Tau Fibril Formation, Thioflavin T Binding; conditions: recombinant tau K18 P301L (four-repeat tau fragment), heparin-induced fibrillization, ThT fluorescence; series mostly up to 57.4 µM; further: nearly all actives have a fitted effect of over 55% in size
Outline: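 Heparin-induced fibrillization of the P301L-mutant K18 repeat-domain fragment of human tau was followed by ThT binding in quantitative high-throughput format.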
Potency means the concentration at half of the fitted maximal effect; tags describe the fitted curve by direction and shape.

Sequence of UniProt P10636 (P10636 whole entry, looked up, the tested form may be a part): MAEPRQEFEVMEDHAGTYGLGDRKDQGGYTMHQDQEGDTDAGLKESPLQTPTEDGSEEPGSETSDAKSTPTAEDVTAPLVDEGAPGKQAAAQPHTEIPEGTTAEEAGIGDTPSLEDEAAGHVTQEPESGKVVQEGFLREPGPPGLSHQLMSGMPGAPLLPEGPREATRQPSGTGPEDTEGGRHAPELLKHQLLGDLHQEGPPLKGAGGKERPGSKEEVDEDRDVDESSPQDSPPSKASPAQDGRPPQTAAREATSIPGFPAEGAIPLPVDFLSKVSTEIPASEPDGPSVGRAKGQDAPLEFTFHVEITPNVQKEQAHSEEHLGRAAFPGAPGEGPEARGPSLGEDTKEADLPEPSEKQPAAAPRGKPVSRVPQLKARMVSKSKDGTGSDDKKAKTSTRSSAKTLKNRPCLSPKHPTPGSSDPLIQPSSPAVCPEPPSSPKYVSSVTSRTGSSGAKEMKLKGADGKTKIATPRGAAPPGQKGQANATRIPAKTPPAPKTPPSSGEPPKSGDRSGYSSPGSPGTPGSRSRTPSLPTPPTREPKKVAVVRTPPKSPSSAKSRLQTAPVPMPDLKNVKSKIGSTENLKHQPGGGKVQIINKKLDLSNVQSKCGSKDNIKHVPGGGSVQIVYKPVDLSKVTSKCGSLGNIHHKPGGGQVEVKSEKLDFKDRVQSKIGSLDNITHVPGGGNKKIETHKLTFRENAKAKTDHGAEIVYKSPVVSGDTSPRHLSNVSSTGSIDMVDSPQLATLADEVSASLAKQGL

SMILES	Potency
CN(C)Cc1ccccc1-c1nc(N(C)Cc2ccco2)c2ccccc2n1	inconclusive: 17.8 µM [inhibitor, partial curve]
Cc1ccc(NC(=O)Nc2c(C)n(C)n(-c3ccccc3)c2=O)c(Cl)c1	inactive
Cc1cc(C)n2nc(C(=O)N3CCCC(CNS(=O)(=O)c4cccs4)C3)cc2n1 (stereo unspecified)	inactive
COc1ccccc1NC(=O)c1ccc(-c2nc(COc3ccc(C)cc3)c(C)o2)cc1	inactive
CCN(CCN(C)C)C(=O)c1ccc2c(c1NCCO)C(=O)c1ccccc1C2=O	inconclusive: 15.8 µM [inhibitor, partial curve]
O=C(CSCc1nc2ccccc2[nH]1)N1CCN(c2cccc(Cl)c2)CC1	inconclusive: 14.1 µM [inhibitor, partial curve]
Cc1ccccc1N1C(S)=C(C#N)C(=O)NC1c1ccco1 (stereo unspecified)	active: 25.1 µM
Cc1cc2nnc(SC3CCCCN(C(=O)c4ccc(F)cc4)C3=O)n2c2ccccc12 (stereo unspecified)	inactive
COc1ccc(C2CC(=O)C3=C(C2)Nc2ccccc2NC3c2coc3ccccc3c2=O)cc1OC (stereo unspecified)	inactive
O=C(Nc1ccc(OCC(F)(F)C(F)F)c(C(F)(F)F)c1)c1ccccc1O	inconclusive: 20 µM [inhibitor, partial curve]
COc1ccc2[nH]c3c4c(ccc3c2c1)C(=O)C=CC4=O	active: 3.55 µM
CC(NS(=O)(=O)c1ccc(Br)cc1)C(=O)NCc1ccco1 (stereo unspecified)	inconclusive: 39.8 µM [inhibitor, single point]
Oc1ccc(N=Nc2n[nH]c(-c3ccc(Br)cc3)n2)cc1	active: 2.24 µM
O=C(CCS(=O)(=O)Cc1ccccc1F)N1CCc2ccccc2C1	inactive
O=C(CSc1ncc2c(n1)-c1cc(Cl)ccc1N(Cc1ccccc1)S2(=O)=O)NCCc1ccccc1	inactive
CCOc1ccc(/C=C/C(=O)Nc2sc3c(c2C(=O)OC)CCCC3)cc1	inconclusive: 11.2 µM [inhibitor, partial curve]
Nc1nc(Nc2cccc(Cl)c2)sc1C(=O)c1ccc(F)cc1	inconclusive: 2.82 µM [inhibitor, single point]
COc1ccc2cnoc(=O)c2c1OC	inactive
Cc1ccc(/C(O)=C/C(=O)C(=O)NC23CC4CC(CC(C4)C2)C3)cc1	inconclusive: 14.1 µM [inhibitor, partial curve, poor fit]
CCOC(=O)/C(C#N)=C/c1ccc(OC(=O)c2ccccn2)cc1	inconclusive: 25.1 µM [inhibitor, partial curve]
CCCNC(=S)Nc1ccc(Br)cc1	inactive
Cc1ccccc1Nc1cccc2nonc12	inactive
CCOc1cc(/C=N/NC(=O)c2cc(C)n(-c3ccc(F)cc3)c2C)ccc1O	inconclusive: 3.98 µM [inhibitor, partial curve]
O=C(C1CCN(S(=O)(=O)N2CCC3(CC2)OCCO3)CC1)N1CCCCC1	inactive

SMILES	Potency
C/C(=N\NC(=S)Nc1ccc(C)c(C)c1)c1ccc(N2CCOCC2)cc1	inactive
COc1ccc(C2CC(=O)c3cc(-c4nc(-c5ccc(C)cc5)cs4)c(=O)[nH]c3C2)cc1 (stereo unspecified)	inactive
CCc1cc2cc(OC)ccc2nc1SCC(=O)Nc1cc(OC)c(OC)cc1C(=O)O	inconclusive: 28.2 µM [inhibitor, partial curve]
CNc1ccc(S(=O)(=O)NCC(=O)OCC(=O)Nc2cccc(Cl)c2Cl)cc1[N+](=O)[O-]	inconclusive: 15.8 µM [inhibitor, partial curve]
Cc1cccc(C(=O)n2nc(-c3cccnc3)nc2NCc2ccc(F)cc2)c1	inconclusive: 12.6 µM [inhibitor, partial curve]
COc1ccccc1/C=C/C=N/NC(=O)c1ccccn1	inconclusive: 15.8 µM [inhibitor, single point]
Cc1c(C(=O)NCc2cccc(F)c2)oc2c1-c1[nH]ncc1CC2	inactive
COc1ccccc1NS(=O)(=O)c1cc(NC(=S)Nc2cc(C)cc(C)c2)ccc1Cl	inactive
COc1cccc(C2CC(=O)N3CN(c4ccccc4F)CSC3=C2C#N)c1 (stereo unspecified)	inconclusive: 7.94 µM [inhibitor, partial curve]
O=[n+]1c2c(n([O-])c3cc(F)c(N4CCCC4)cc31)CCCC2	inconclusive: 14.1 µM [inhibitor, partial curve]
S=c1[nH]nc(-c2cc(-c3ccccc3)n[nH]2)n1/N=C/c1ccc(Br)s1	inconclusive: 39.8 µM [inhibitor, single point]
Cc1ccc(C)c(N(C)S(=O)(=O)c2ccc3[nH]cc(C(=O)NCCN4CCOCC4)c(=O)c3c2)c1	inactive
COc1cc(NC(=O)C(CC(C)C)N2Cc3ccccc3C2=O)cc(OC)c1 (stereo unspecified)	inactive
CCOC1(OCC)N=C(N)C2(C#N)C(c3ccc(NC(C)=O)cc3)C12C#N (stereo unspecified)	inconclusive: 14.1 µM [inhibitor, partial curve]
O=C(c1ccccc1)c1cc2ccc(O)cc2oc1=O	inactive
N#Cc1c(N2CCCC2)ccc(Br)c1Cl	inactive
C=CCn1c(=NC(=O)C2CC2)sc2cc(NC(C)=O)ccc21	inconclusive: 39.8 µM [inhibitor, single point]
COc1ccc2c(c1)O[C@@H](c1ccc3c(c1)OCO3)[C@H](OC(=O)Nc1cc(OC)c(OC)c(OC)c1)C2=O	inactive and inconclusive: 8.91 µM [inhibitor, full curve]
COc1ccccc1OCC(=O)N/N=C1\CCCCc2ccccc21	inconclusive: 28.2 µM [inhibitor, single point]
O=C1NC2=C(CCc3ccccc32)C(c2ccccc2)N1 (stereo unspecified)	inconclusive: 39.8 µM [inhibitor, single point]
Cc1c(C(=O)NC(=S)Nc2ccccc2N2CCCC2)cccc1[N+](=O)[O-]	inconclusive: 31.6 µM [inhibitor, partial curve]
Cc1sc2nc(SCC(=O)Nc3c(C)n(C)n(-c4ccccc4)c3=O)n(C)c(=O)c2c1C	inconclusive: 17.8 µM [inhibitor, partial curve]
CN(CC(O)Cn1cnc2c1c(=O)n(C)c(=O)n2C)c1ccccc1 (stereo unspecified)	inactive
O=S(=O)(Cc1ccco1)Cc1nc(-c2ccc(Cl)cc2)cs1	inactive

SMILES	Potency
Cc1c(C#N)c(O)n(CCO)c(=O)c1N=Nc1ccc(S(N)(=O)=O)cc1	active: 12.6 µM
Nc1ccc(SC(F)(F)F)cc1C(=O)c1ccccc1	inconclusive: 31.6 µM [inhibitor, single point]
COc1cccc(NC(=O)Nc2ccc3snnc3c2)c1	inconclusive: 31.6 µM [activator, single point]
COC(Cn1c2c(c3cc(C)ccc31)CCCC2NCc1ccccc1)OC (stereo unspecified)	inconclusive: 20 µM [inhibitor, partial curve]
Cc1ccc(S(=O)(=O)Nc2cc(-c3nn(C)c(=O)c4ccccc34)ccc2N2CCOCC2)cc1	inconclusive: 8.91 µM [inhibitor, partial curve, poor fit]
Cc1[nH]c2c(C)cccc2c1CN1CCC(CO)(Cc2ccccc2)CC1	inconclusive: 31.6 µM [inhibitor, single point]
CCOc1ccccc1N(CC(=O)N/N=C/c1cc(Br)ccc1OC)S(C)(=O)=O	inconclusive: 17.8 µM [inhibitor, partial curve, poor fit]
CCN(CC)c1ccc(C(=O)N/N=C/c2ccc(N3CCOCC3)cc2)cc1	inconclusive: 1.12 µM [inhibitor, full curve]
Cc1cccc(NC(=O)c2ccc3[nH]c(C)cc(=O)c3c2)c1	inconclusive: 1.41 µM [inhibitor, full curve]
CC(C)CCNC(=O)c1cc(-c2ccc(Br)s2)nc2ccccc12	inactive
CNC(=S)N/N=C/c1cn(Cc2ccc(F)cc2)c2ccccc12	inconclusive: 31.6 µM [inhibitor, single point]
CSc1ncc(Cl)c(C(=O)C(C#N)c2nc3c(C)cc(C)cc3c(=O)[nH]2)n1 (stereo unspecified)	inconclusive: 28.2 µM [inhibitor, partial curve]
CCOc1ccccc1NC1=C(Cl)C(=O)N(Cc2ccccc2)C1=O	inconclusive: 17.8 µM [inhibitor, partial curve]
CSc1ccccc1NC(=O)COC(=O)c1ccccc1Cc1ccccc1	inconclusive: 28.2 µM [inhibitor, single point]
Cc1cc(NC(=O)C2CCN(S(=O)(=O)c3cccs3)CC2)no1	inactive
Cc1cc(C)nc(SCc2ccc([N+](=O)[O-])cc2)n1	inconclusive: 35.5 µM [inhibitor, single point]
O=C(CCOc1ccccc1)OCC(=O)c1cc2ccccc2o1	inconclusive: 2.24 µM [inhibitor, full curve, poor fit]
COC(=O)c1ccc(N/C(C)=C/C(=O)c2ccc(C)o2)cc1	inconclusive: 6.31 µM [inhibitor, partial curve]
CCOC(=O)c1c(O)c2ccccc2oc1=O	inactive
CCCCOc1ccccc1Cn1c(=O)sc2ccccc21	inactive
CSCC[C@H](NC(=O)c1cc([N+](=O)[O-])ccc1Cl)c1nc2ccccc2[nH]1	inconclusive: 15.8 µM [inhibitor, partial curve, poor fit]
Cc1ccc(C)c(/C(O)=C2\C(=O)C(=O)N(Cc3cccnc3)C2c2cccnc2)c1 (stereo unspecified)	inactive
CC(C)(C)c1ccc(OCC(=O)N(c2ccccn2)C2CCCCC2)cc1	inconclusive: 15.8 µM [inhibitor, partial curve, poor fit]
